According to PubChem BioAssay (NCATS):
This list was built around the results that the source calls inconclusive (neither active nor inactive); the mix of calls is not that of the screen. Potencies of inconclusive entries are doubtful fits and often do not repeat. The source made the active and inactive calls. Calls follow the shape of the dose curve; as a rule, active = well fitted activation curve with a large enough effect in the signal ratio, with a control signal flat (not every such curve was filed as active); inconclusive = small, poorly fitted or top-dose-only effect, or effect the other way, or a change in a side signal; inactive = flat fitted curve, though single readings scatter; the % refers to the signal ratio.

assay: qHTS Assay for Identification of Small Molecule Agonists for Hypoxia Response Element Signaling Pathway (AID 914); details: ME-180 HRE-bla reporter, beta-lactamase ratio, CoCl2, 17 h; activation: stronger effect = higher value; as to activation: top concentration of the series differs between compounds; % of control where 0% means no effect
In short: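 ME-180 cells carrying an HRE-driven beta-lactamase reporter were treated with compounds in a titration series plus an EC50 level of CoCl2 for 17 h at 37 degrees Celsius; CCF4 readout as the 460nm/530nm ratio gave AC50 values.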
Potency is read from the fitted curve at half-maximal effect; tags tell the direction and shape of the fitted curve or compound fluorescence and quenching.

| SMILES | Potency | activation |
| --- | --- | --- |
| CCCc1cc(NCCN2CCOCC2)n2c(nc3ccccc32)c1C#N | inconclusive: 12.6 µM [activator, single point] |  |
| COC(=O)c1ccc(=O)n(Cc2ccc3c(c2)OCO3)c1 |  | inactive: 26.1% |
| Clc1ccc2nc(CSc3nc4ccccc4o3)cn2c1 | inconclusive: 12.6 µM [inhibitor, partial curve, poor fit] |  |
| O=C(O)c1ccc2c(c1C(=O)O)C(=O)OC2(c1ccc(O)cc1)c1ccc(O)cc1 |  | inactive: 9.96% |
| N[C@H]1[C@@H](C(=O)O)[C@H]2C=C[C@H]1C2 |  | inconclusive: -4% |
| O=S(=O)(c1ccccc1)N1CN2CN(C1)CN(S(=O)(=O)c1ccccc1)C2 |  | inactive: -1.12% |
